Source: the supplement of paper PMC12217912
The other results are listed elsewhere or left out. The full chains were built here from the parent and the listed change. Values near 0.05 are background.

B1: TEV protease; numbered along this chain (parent)
chain: MGESLFKGPRDYNPISSSICHLTNESDGHTTSLYGIGFGPFIITNKHLFRRNNGTLVVQSLHGVFKVKDTTTLQQHLVDGRDMIIIRMPKDFPPFPQKLKFREPQREERICLVTTNFQTKSMSSMVSDTSCTFPSGDGIFWKHWIQTKDGQCGSPLVSTRDGFIVGIHSASNFTNTNNYFTSVPKNFMELLTNQEAQQWVSGWRLNADSVLWGGHKVFMVKPEEPFQPVKEATQL

Variants of: B1
Test: raw area under fraction-flipped curve 0-4 h after induction (AUC4h, not background-subtracted), DNA-recorder readout of cleavage of the substrate (dimensionless); higher = more cleavage of the substrate by the protease variant
Conditions: temperature: 34 °C; time window: 0-4 h after rhamnose induction
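Note: Bxb1 expression induced with 0.2% (w/v) L-rhamnose at OD600 near 0.5, cultures sampled hourly, flipped fraction per protease–substrate barcode pair counted by paired-end Illumina sequencing.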

Variant | area with substrate ENLYFQC | area with substrate ENLYFQF | area with substrate ENLYFQH | area with substrate ENLYFQI | area with substrate ENLYFQK | area with substrate ENLYFQL | area with substrate ENLYFQN | area with substrate ENLYFQS | area with substrate ENLYFQT | area with substrate ENLYFQV | area with substrate ENLYFQY | area with substrate ENLYFQD | area with substrate ENLYFQE | area with substrate ENLYFQG | area with substrate ENLYFQM | area with substrate ENLYFQQ | area with substrate ENLYFQR | area with substrate ENLYFQW | area with substrate ENLYFQP
V157E | 0.0503 | 0.056 | 0.0421 | 0.041 | 0.0505 | 0.0522 | 0.0476 | 0.055 | 0.0511 | 0.0486 | 0.0376 | – | – | – | – | – | – | – | –
V157W | 0.0702 | 0.0539 | 0.0639 | 0.0543 | 0.059 | 0.0552 | 0.0635 | 0.0647 | 0.0478 | 0.0461 | 0.055 | 0.0503 | 0.0546 | 0.125 | 0.061 | 0.0565 | 0.0493 | 0.0502 | –
P134Q | – | – | – | – | 0.052 | 0.0594 | – | 0.0892 | – | – | – | 0.0604 | – | 0.135 | – | – | – | 0.0579 | 0.0615
S135K | – | – | 0.0535 | 0.0582 | 0.0709 | 0.0579 | 0.0566 | 0.0639 | 0.0792 | – | 0.0621 | 0.0572 | – | 0.0651 | 0.0441 | – | 0.0548 | – | 0.0511
S135N | 0.0718 | 0.0375 | 0.0647 | 0.0583 | – | 0.066 | 0.0878 | 0.0813 | 0.0655 | 0.0692 | 0.0513 | – | – | 0.0729 | 0.0616 | 0.066 | 0.0668 | 0.0708 | –
V126I | 0.0901 | – | – | – | – | 0.0571 | 0.0579 | 0.102 | 0.0587 | – | 0.0787 | 0.0706 | – | 0.0428 | 0.0787 | – | – | 0.0698 | –
I167R | 0.063 | – | – | 0.0473 | 0.0405 | 0.005 | 0.0399 | 0.0485 | 0.0429 | 0.0561 | – | 0.0488 | – | 0.0484 | 0.0523 | – | 0.0596 | 0.0477 | –
T147R | 0.0726 | 0.053 | 0.0728 | 0.0333 | 0.0462 | 0.059 | 0.0541 | 0.0662 | – | 0.0448 | 0.06 | 0.0626 | – | – | 0.0469 | – | 0.0582 | 0.0525 | –
T147F | 0.0595 | 0.0602 | – | 0.0582 | – | – | 0.0594 | 0.0601 | 0.112 | 0.0578 | 0.0596 | – | 0.0614 | 0.0823 | 0.0579 | – | 0.0672 | 0.0472 | 0.0193
Q198L | 0.102 | – | – | 0.0637 | 0.0731 | 0.0491 | 0.072 | 0.102 | 0.0588 | 0.0393 | – | 0.0758 | 0.0691 | 0.0961 | 0.0886 | – | 0.0591 | – | –
Q198A | 0.101 | – | – | 0.0627 | 0.0584 | – | 0.0671 | 0.088 | 0.0716 | 0.0727 | 0.0611 | 0.0635 | – | 0.0833 | – | – | 0.0444 | 0.0551 | –
Q198N | – | 0.0725 | – | 0.0615 | 0.0542 | – | – | 0.1 | 0.0846 | – | 0.0766 | 0.0924 | – | – | 0.102 | – | 0.0623 | 0.0328 | –
N175L | 0.0917 | – | 0.0653 | 0.06 | 0.0383 | 0.0473 | 0.0668 | 0.0856 | 0.0648 | 0.0659 | 0.0605 | – | 0.0658 | 0.0796 | 0.0567 | – | 0.0592 | 0.051 | 0.0526
